Experimental data: the supplement of paper PMC7826260
The list shows a part of the results. One pool of 16,384 single-stranded DNAs met each Rep nickase domain in vitro for 1 h at 37 °C with 3 µM enzyme; only the middle of the 90-letter strands is printed. A value is the log2 ratio of uncut reads to the pool without enzyme; strong cutting gives strongly negative numbers. There is no active / inactive call. Because reads are shares of a total, they shift together, so uncut sequences can rise above 0 when many others are cut.

Legend:
Assay in all cases: uncleaved DNA left, log2 of reads against the no-enzyme library (log2 ratio); higher = less cleavage (more negative = more Rep cleavage of the k-mer); sequences stand for … in CTCGTCCG…ACCGGAGA
[1] = test system: T1, Rep nickase domain of Muscovy duck circovirus
T1 sequence (protein, residues 1-111, tag omitted): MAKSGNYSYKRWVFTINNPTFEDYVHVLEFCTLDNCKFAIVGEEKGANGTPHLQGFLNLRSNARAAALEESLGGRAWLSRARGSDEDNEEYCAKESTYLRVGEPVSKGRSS
Protocol: (§1)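 A pool of 90-nt single-stranded DNAs with seven random bases just before the constant AC of the nick site (name = the seven bases) was cut by 3 µM recombinant His6-SUMO-tagged Rep nickase domain (300 nM DNA, 50 mM HEPES pH 8.0, 50 mM NaCl, 1 mM MnCl2, 1 h, 37 °C, three replicates). Uncut DNA was amplified and sequenced.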

[2] = test system: T2, Rep nickase domain of banana bunchy top virus
T2 sequence (protein, residues 1-94, tag omitted): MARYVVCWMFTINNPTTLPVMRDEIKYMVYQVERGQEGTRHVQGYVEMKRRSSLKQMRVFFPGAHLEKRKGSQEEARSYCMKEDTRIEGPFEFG
Protocol: as §1

[3] = test system: T3, Rep nickase domain of cabbage leaf curl virus
T3 sequence (protein, residues 1-116, tag omitted): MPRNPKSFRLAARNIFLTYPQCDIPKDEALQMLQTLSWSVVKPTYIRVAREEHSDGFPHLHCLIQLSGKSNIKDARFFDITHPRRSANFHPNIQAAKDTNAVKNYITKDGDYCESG
Protocol: as §1

[4] = test system: T4, Rep nickase domain of chickpea chlorotic dwarf virus
T4 sequence (protein, residues 1-124, tag omitted): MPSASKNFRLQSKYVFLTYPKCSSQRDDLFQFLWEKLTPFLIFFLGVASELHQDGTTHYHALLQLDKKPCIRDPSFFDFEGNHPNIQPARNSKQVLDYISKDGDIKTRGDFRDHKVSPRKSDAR
Protocol: as §1

[5] = test system: T5, Rep nickase domain of faba bean necrotic yellows virus
T5 sequence (protein, residues 1-98, tag omitted): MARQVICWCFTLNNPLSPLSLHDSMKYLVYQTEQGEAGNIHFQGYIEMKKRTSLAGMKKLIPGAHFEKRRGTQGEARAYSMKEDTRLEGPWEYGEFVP
Protocol: as §1

[6] = test system: T6, Rep nickase domain of maize striate mosaic virus
T6 sequence (protein, residues 1-117, tag omitted): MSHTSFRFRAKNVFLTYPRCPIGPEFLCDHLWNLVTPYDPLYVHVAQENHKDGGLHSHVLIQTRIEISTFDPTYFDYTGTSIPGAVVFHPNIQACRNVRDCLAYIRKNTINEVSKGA
Protocol: as §1

[7] = test system: T7, Rep nickase domain of porcine circovirus 2
T7 sequence (protein, residues 2-116, tag omitted): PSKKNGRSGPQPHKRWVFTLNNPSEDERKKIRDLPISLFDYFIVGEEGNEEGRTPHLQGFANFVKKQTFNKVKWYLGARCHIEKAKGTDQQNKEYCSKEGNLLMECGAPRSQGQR
Protocol: as §1

[8] = test system: T8, Rep nickase domain of tomato golden mosaic virus
T8 sequence (protein, residues 1-124, tag omitted): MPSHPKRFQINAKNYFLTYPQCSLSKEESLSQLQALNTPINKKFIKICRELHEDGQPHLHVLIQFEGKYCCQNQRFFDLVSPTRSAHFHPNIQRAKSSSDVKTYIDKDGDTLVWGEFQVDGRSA
Protocol: as §1

[9] = test system: T9, Rep nickase domain of tomato yellow leaf curl virus
T9 sequence (protein, residues 1-136, tag omitted): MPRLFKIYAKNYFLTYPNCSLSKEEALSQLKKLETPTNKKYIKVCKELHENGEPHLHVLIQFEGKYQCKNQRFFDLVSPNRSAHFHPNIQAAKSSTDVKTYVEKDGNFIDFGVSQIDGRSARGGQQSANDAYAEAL
Protocol: as §1

[10] = test system: T10, Rep nickase domain of wheat dwarf virus
T10 sequence (protein, residues 1-137, tag omitted): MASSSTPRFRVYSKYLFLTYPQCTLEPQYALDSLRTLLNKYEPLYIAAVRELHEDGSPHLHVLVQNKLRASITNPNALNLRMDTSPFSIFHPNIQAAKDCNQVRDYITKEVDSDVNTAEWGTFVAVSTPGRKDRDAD
Protocol: as §1

Sequence | uncleaved DNA left (log2) [1] | uncleaved DNA left (log2) [2] | uncleaved DNA left (log2) [3] | uncleaved DNA left (log2) [4] | uncleaved DNA left (log2) [5] | uncleaved DNA left (log2) [6] | uncleaved DNA left (log2) [7] | uncleaved DNA left (log2) [8] | uncleaved DNA left (log2) [9] | uncleaved DNA left (log2) [10]
CGATTGT | -0.0571 | 0.0289 | -0.0164 | 0.578 | 0.0241 | 1.21 | -0.0252 | -0.175 | -0.0926 | -0.0169
CAACGTG | 0.0568 | 0.167 | -0.531 | -0.911 | 0.12 | -1.07 | 0.186 | 0.102 | 0.243 | -0.0175
CTGCATT | 0.0162 | 0.0282 | -0.0684 | -1.13 | -0.122 | -0.631 | -0.426 | -0.104 | 0.138 | 0.0241
GGTATCT | 0.0461 | 0.0977 | 0.503 | 0.936 | -0.00941 | 1.81 | -0.176 | 0.0202 | 0.0657 | 0.0784
GGTGCCG | 0.09 | -0.0717 | -0.517 | -0.179 | -0.0801 | -0.38 | 0.182 | -0.122 | -0.0336 | -0.114
TCAAATG | 0.0635 | 0.0667 | -0.211 | -0.207 | 0.0373 | -0.76 | 0.165 | 0.122 | 0.048 | 0.115
ACAGAGG | 0.0106 | -0.0669 | -0.624 | -0.404 | 0.0353 | -0.902 | 0.23 | 0.0818 | -0.0914 | -0.041
CGTTGTG | 0.0413 | -0.0732 | -0.611 | 0.466 | -0.0723 | -0.421 | -0.0447 | -0.217 | 0.0595 | -0.115
CCCCACG | -0.0335 | 0.238 | -0.78 | -0.254 | -0.00471 | -0.885 | 0.077 | 0.113 | 0.00378 | 0.0146
TACATAG | -0.0366 | -0.123 | -0.816 | -0.625 | 0.0402 | -1.24 | 0.0542 | -0.0873 | 0.066 | -0.156
GTCAGAC | -0.0375 | 0.0588 | 0.495 | 1.13 | 0.0962 | 1.65 | 0.192 | 0.076 | 0.0493 | 0.0893
ATTAACC | -0.128 | -0.0622 | -0.405 | -1.52 | -0.00361 | -0.788 | -0.571 | -0.0268 | -0.0937 | -0.0893
ATCGAAT | -0.0471 | 0.00329 | 0.179 | 0.0589 | 0.0594 | 0.285 | 0.0562 | 0.0608 | 0.0261 | -0.0294
GTGTAAC | -0.0756 | 0.0666 | 0.252 | 0.768 | -0.0251 | 1.86 | 0.0598 | 0.0965 | 0.0643 | 0.0897
CGATATC | 0.0365 | -0.0441 | 0.181 | 0.234 | -0.087 | -0.178 | 0.0169 | -0.0857 | -0.0197 | 0.0466
